This passage reports activity change, negative = inhibition results from PubChem BioAssay AID1745853 (National Center for Advancing Translational Sciences (NCATS), 2022).

Structures are written as SMILES. Some of the results follow. These are further read-outs of the screen, such as a control signal, another cell line or another target. No call is given for them.

Test in all cases: Primary Screen for Target Class Profiling of Small Molecule Inhibitors of Methyltransferases
In test [1] the target is Glycine N-methyltransferase (Homo sapiens) (UniProt Q14749). The note with it: purified enzyme, MTase-Glo SAH luminescence; measured here: GNMT inhibition; at 40 µM; stronger effect = lower value. In short, it runs like this:
(§1)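 Each enzyme was assayed with SAM and its substrate. SAH formation detected by MTase-Glo luminescence; single-point 40 uM screen[…].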

The target in test [2] is Guanidinoacetate N-methyltransferase (Homo sapiens) (UniProt Q14353). The note with it: purified enzyme, MTase-Glo SAH luminescence; measured here: GAMT inhibition; at 40 µM; stronger effect = lower value. The procedure, abridged: as §1
Test [3] concerns the target Histamine N-methyltransferase (Homo sapiens) (UniProt P50135). The settings on record: purified enzyme, MTase-Glo SAH luminescence; measured here: HNMT inhibition; at 40 µM; stronger effect = lower value. In short, it runs like this:
as §1

The target in test [4] is Nicotinamide N-methyltransferase (Homo sapiens) (UniProt P40261). The note with it: purified enzyme, MTase-Glo SAH luminescence; measured here: NNMT inhibition; at 40 µM; stronger effect = lower value. The procedure, abridged:
as §1

Test [5] addresses Phenylethanolamine N-methyltransferase (Homo sapiens) (UniProt P11086). The note with it: purified enzyme, MTase-Glo SAH luminescence; measured here: PNMT inhibition; at 40 µM; stronger effect = lower value. The procedure, abridged: as §1
% is scaled to controls: 0 for no effect and ±100 for the full control effect.

In the case of `NC[C@H]1O[C@@H](n2cnc3c(N)ncnc32)[C@H](O)[C@@H]1O`, the activity change, negative = inhibition is -65.7% in test [1]; -65.6% in test [2]; -66.7% in test [3]; -62.7% in test [4]; -73.4% in test [5].
For the compound `Cn1c(CNc2cccc(C(=O)NCc3ccccc3C(F)(F)F)c2)nnc1-c1ccncc1`, the activity change, negative = inhibition in test [2] is -0.317%; in test [4], -13%; in test [5], 2.82%.
For `C=CCC1=C[C@]2(OC)[C@H](C)[C@@H](c3ccc4c(c3)OCO4)O[C@]2(OC)CC1=O`, the activity change, negative = inhibition in test [1] is 2.29%; in test [2] it was -1.91%; in test [3] it was 5.98%; in test [4] it was -14.6%; in test [5] it was -4.35%.
Turning to `CC1CCCCC1NC(=O)C1(C)Cn2c(cc3sccc32)C(=O)N1Cc1cccc(F)c1` (stereo not drawn), the activity change, negative = inhibition in test [1] is 1.45%; in test [2] it was 0%; in test [3], -0.579%; in test [4], -3.02%; in test [5], -4.09%.
`Cc1cn2c(-c3cn[nH]c3)cnc2c(Nc2ccc(C(=O)N3CCNCC3)cc2F)n1`: the activity change, negative = inhibition in test [1] is 36.6%; in test [2], -3.4%; in test [3], -24.1%; in test [4], -13.2%; in test [5] it was -7.57%.
Regarding `CCN1C(=O)c2cc3ccccc3n2CC1(C)C(=O)NCC(=O)NCCc1ccccc1C` (stereo not drawn), the activity change, negative = inhibition in test [1] was -3.37%; in test [2], 0%; in test [3], 4.86%; in test [4] it was -3.11%; in test [5] it was -2.57%.
With `CCOC(=O)COc1ccc2c(-c3ccccc3)cc(=O)oc2c1C`, the activity change, negative = inhibition in test [1] is -6.03%; in test [2], 3.05%; in test [3], 2.36%; in test [4], -14.2%; in test [5] it was -20.8%.
The matching figures for `COc1ccccc1-c1noc(CCC(=O)N2CCC(Cc3noc(C)n3)CC2)n1`: -1.64%, -2.14%, -2.52%, -3.62% and 4.54%.
In the same order, the values of `COC[C@@H]1CN(Cc2ccco2)C[C@H]1C(=O)N(C)C` are 0.838%, 0.894%, 2.65%, 0.745% and -4.43%.
With `CCOc1ccc(CN2C(=O)c3cc4occc4n3CC2(C)C(=O)NC2CCCCCCC2)cc1` (stereo not drawn), the activity change, negative = inhibition was 0.111% in test [1]; 0% in test [2]; 2.09% in test [3]; -4.53% in test [4]; -1.7% in test [5].
For the compound `C=C1CCC2C(C)(C)C(O)CCC2(C)C1CCC(C)CCOC(=O)CCC(=O)O` (stereo not drawn), the activity change, negative = inhibition was 0.075% in test [1]; 4.24% in test [2]; 8.39% in test [3]; -15.9% in test [4]; -3.05% in test [5].
`C=CC1C(O[C@@H]2O[C@H](CO)[C@@H](O)[C@H](O)[C@H]2O)OC=C(C(=O)OC)C1CC(=O)O` (stereo partly drawn): the activity change, negative = inhibition in test [1] was 2.79%; in test [2], 1.68%; in test [3], 9.7%; in test [4], -7.66%; in test [5], 5.58%.
As to `CCOC(=O)Cc1ccc(NC(=O)N2Cc3c(sc4c3CCCC4)-n3cccc3C2c2ccc(F)cc2)cc1` (stereo not drawn), the activity change, negative = inhibition in test [1] is -0.099%; in test [2], 0%; in test [3], 2.83%; in test [4], 3.02%; in test [5], 9.7%.
Turning to `COc1c(/C=C/C(C)(C)O)ccc2c1C(=O)OCc1cc(C)cc(O)c1O2`, the activity change, negative = inhibition is 0.374% in test [1]; 1.11% in test [2]; 9.4% in test [3]; -14.8% in test [4]; 2.73% in test [5].
As for `C=CC(C)(C)c1[nH]c2cc3c(cc2c1CC1NC(=O)C2=CCCN2C1=O)C=CC(C)(C)O3` (stereo not drawn), the activity change, negative = inhibition in test [1] was -2.55%; in test [2], -16.6%; in test [3], 3.35%; in test [4] it was -30.1%; in test [5], -12.2%.
The matching figures for `NS(=O)(=O)c1ccc(C(=O)N[C@H](c2cccs2)C2CC(O)C2)cc1` (stereo partly drawn): -2.22%, -10.2%, -0.436%, -9.41% and -4.2%.
For `C[C@@H]1O[C@@H](O[C@@H]2[C@@H](O)[C@H](O[C@@H]3[C@@H](O)[C@@H](O)[C@H](O[C@H]4[C@H](OC(=O)[C@]56CCC(C)(C)C[C@H]5C5=CCC7[C@@]8(C)C[C@H](O)[C@H](O[C@@H]9O[C@H](C(=O)O)[C@@H](O)[C@H](O)[C@H]9O)[C@@](C)(CO)C8[C@H](O)C[C@@]7(C)[C@]5(C)C[C@H]6O)O[C@@H](CO)[C@@H]4O)O[C@H]3C)OC[C@H]2O)[C@H](O)[C@H](O)[C@H]1O` (stereo partly drawn), the activity change, negative = inhibition in test [1] was 0%; in test [2] it was 7.15%; in test [3], 10%; in test [4] it was -6.7%; in test [5] it was 8.97%.
